# Source: paper PMC4081100
# The entries are a selection whose mix differs from that of the whole data set. For part of these data: At the low end of the ranking, values are background and their order means little. This is one part of the list. For part of these data: The exact form of the protein is not confirmed.
# Key:
# Experiment in all cases: universal protein binding microarray (PBM)
# Settings in all cases: transcription factors of Arabidopsis thaliana; high values mean tight binding; most listed sequences are background and not binding sites; double strand, one strand shown
# GST-ANAC092(1-176) = target: T1, GST-ANAC092(1-176) (UniProt Q9FKA0)
# T1 sequence: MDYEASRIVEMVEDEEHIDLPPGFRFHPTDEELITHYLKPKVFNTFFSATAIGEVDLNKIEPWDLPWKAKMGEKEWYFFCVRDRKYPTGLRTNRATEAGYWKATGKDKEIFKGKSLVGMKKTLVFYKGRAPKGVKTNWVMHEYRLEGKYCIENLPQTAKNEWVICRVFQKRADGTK
# GST-NTL6(1-168) = GST-NTL6(1-168) (UniProt Q9SCK6)
# GST-ANAC019 NAC domain = target: T2, GST-ANAC019 NAC domain (UniProt Q9C932)
# T2 sequence: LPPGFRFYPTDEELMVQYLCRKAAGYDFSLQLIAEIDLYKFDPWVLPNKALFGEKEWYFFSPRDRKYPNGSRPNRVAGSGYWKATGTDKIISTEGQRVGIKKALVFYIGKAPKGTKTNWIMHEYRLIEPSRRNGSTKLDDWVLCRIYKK
# GST-ATAF1 NAC domain = target: T3, GST-ATAF1 NAC domain (UniProt Q39013)
# T3 sequence: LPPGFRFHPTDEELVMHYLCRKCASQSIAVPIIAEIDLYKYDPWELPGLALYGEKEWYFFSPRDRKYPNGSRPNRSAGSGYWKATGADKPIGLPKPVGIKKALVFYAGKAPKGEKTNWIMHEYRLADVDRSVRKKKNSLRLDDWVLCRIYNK
# GST-NAP(1-166) = target: T4, GST-NAP(1-166) (UniProt O49255)
# T4 sequence: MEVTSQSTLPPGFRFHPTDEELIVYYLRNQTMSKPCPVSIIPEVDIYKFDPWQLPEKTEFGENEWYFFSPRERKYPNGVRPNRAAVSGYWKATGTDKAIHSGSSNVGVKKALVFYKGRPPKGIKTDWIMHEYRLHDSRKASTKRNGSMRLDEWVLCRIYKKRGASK
# GST-NST2(1-184) = target: T5, GST-NST2(1-184) (UniProt Q9M274)
# T5 sequence: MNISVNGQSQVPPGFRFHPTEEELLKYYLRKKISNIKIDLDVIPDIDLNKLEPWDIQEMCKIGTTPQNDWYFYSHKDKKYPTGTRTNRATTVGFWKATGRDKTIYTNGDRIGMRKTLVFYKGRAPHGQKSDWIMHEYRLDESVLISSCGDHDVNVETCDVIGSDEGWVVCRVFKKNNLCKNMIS
# GST-NTL8 NAC domain = target: T6, GST-NTL8 NAC domain (UniProt Q9XIN7)
# T6 sequence: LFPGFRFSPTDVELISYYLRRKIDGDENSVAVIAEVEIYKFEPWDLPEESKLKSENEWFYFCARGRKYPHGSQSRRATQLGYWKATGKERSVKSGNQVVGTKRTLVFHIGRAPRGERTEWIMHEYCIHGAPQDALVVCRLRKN
# GST-VND7 NAC domain = target: T7, GST-VND7 NAC domain (UniProt Q9C8W9)
# T7 sequence: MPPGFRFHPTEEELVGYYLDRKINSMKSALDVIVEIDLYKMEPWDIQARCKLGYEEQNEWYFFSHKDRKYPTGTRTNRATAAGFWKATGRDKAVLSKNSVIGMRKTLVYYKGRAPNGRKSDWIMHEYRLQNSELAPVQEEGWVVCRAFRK
# [1] = target: T8, GST-VOZ2 (Arabidopsis thaliana) (UniProt Q9SLB9)
# T8 sequence: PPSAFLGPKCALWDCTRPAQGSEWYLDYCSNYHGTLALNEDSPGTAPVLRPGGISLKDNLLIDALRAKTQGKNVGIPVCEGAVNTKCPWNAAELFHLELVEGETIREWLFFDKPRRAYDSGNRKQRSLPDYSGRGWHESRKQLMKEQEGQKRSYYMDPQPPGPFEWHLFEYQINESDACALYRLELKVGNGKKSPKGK
# GST-WRKY1(266-371) = GST-WRKY1(266-371) (UniProt Q9SI37)
# GST-ANAC055(1-171) = target: T9, GST-ANAC055(1-171) (UniProt Q9LDY8)
# T9 sequence: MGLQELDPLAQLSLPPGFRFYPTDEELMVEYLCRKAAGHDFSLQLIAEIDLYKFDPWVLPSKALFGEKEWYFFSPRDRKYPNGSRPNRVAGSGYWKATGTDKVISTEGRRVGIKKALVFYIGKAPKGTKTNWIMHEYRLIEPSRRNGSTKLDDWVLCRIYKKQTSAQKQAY
# GST-VND3 NAC domain = target: T10, GST-VND3 NAC domain (UniProt Q9FH59)
# T10 sequence: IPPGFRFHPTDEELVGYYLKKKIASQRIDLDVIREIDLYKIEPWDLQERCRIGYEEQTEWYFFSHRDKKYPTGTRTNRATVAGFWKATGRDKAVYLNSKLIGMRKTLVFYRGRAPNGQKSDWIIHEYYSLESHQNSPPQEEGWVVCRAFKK
# [2] = target: T11, GST-ANAC092(1-285) full length (UniProt Q9FKA0)
# T11 sequence: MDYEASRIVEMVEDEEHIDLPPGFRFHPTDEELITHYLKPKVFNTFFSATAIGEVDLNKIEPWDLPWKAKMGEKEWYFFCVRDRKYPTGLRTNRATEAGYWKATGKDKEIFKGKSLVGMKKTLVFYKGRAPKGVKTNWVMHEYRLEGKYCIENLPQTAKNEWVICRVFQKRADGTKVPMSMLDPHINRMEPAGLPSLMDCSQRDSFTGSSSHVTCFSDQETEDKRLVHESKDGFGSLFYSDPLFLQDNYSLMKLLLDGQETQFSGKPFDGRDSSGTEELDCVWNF
Sequence,binding signal (GST-ANAC092(1-176)) [E-score],binding signal (GST-NTL6(1-168)) [E-score],binding signal (GST-ANAC019 NAC domain) [E-score],binding signal (GST-ATAF1 NAC domain) [E-score],binding signal (GST-NAP(1-166)) [E-score],binding signal (GST-NST2(1-184)) [E-score],binding signal (GST-NTL8 NAC domain) [E-score],binding signal (GST-VND7 NAC domain) [E-score],binding signal [1] [E-score],binding signal (GST-WRKY1(266-371)) [E-score],binding signal (GST-ANAC055(1-171)) [E-score],binding signal (GST-VND3 NAC domain) [E-score],binding signal [2] [E-score]
ATTTCTTA,0.0438,0.409,0.00248,0.19,-0.0309,0.126,-0.0301,0.148,0.121,0.00519,,,
AAGTCAGA,0.0562,0.0583,0.0582,0.0162,-0.00178,,-0.108,0.0411,0.00566,0.455,0.073,,
CTTACTTA,0.205,,0.164,,,,0.208,0.106,0.162,0.235,,,
ACACGTCA,0.484,-0.00907,0.436,,0.431,,-0.0975,0.447,0.0676,0.251,,,
CAGTCAAA,0.125,0.0796,,,0.0821,-0.0211,0.104,,0.0706,,0.063,0.0343,
GTTCCTTA,0.136,0.458,0.141,,,0.139,,0.147,-0.0345,-0.0602,0.0564,,
GCTAAGTA,0.00873,0.429,-0.0121,0.0108,,0.00663,-0.0278,0.0222,-0.042,-0.0209,0.0331,,0.0369
AGCACGCA,0.435,-0.1,0.333,,,0.222,0.0609,0.216,0.0267,-0.0625,,,0.453
TAAGCAAA,0.201,,0.113,,,,0.241,0.252,0.144,0.0104,,,0.308
GACGTAAA,,0.0499,,,0.311,,-0.074,,0.138,,,0.329,0.399
CACGTCAA,,-0.00641,,,0.299,0.252,-0.0316,,0.0433,,,0.332,
CACGCGAC,0.421,-0.0963,-0.0248,0.0222,,,-0.0608,,0.14,,0.0447,-0.00526,
GCACGAAA,,,,,,,,0.145,0.0912,-0.135,,,
AACGTAGA,,0.145,,,,,0.0189,,0.101,,,0.206,0.329
ACGTCTCC,,0.0291,,,0.273,,0.052,,0.0104,,,0.34,0.33
GACGCAAC,,0.00137,0.294,,,0.295,0.0123,,0.16,,0.293,0.295,
CTACGTAA,0.329,0.0836,,,,0.0582,0.105,0.345,-0.0348,-0.0301,,,0.378
ACACGTAT,0.289,0.0255,0.406,,,,-0.0288,0.381,0.00847,0.00825,0.342,,0.369
ATTCCGTA,0.209,0.17,,,0.381,,,0.374,-0.0119,0.0324,,,
GAGGTAAC,0.191,0.155,,,0.00583,,0.437,0.0864,0.0115,-0.155,0.0267,,0.2
AGACGTAA,0.425,0.0387,0.453,,0.456,,0.139,0.42,-0.0184,-0.0315,,,
AGGGAAAC,0.0845,0.115,,,0.14,0.0125,0.482,-0.0354,0.0101,-0.0925,-0.00422,,0.071
TCCGTCAA,-0.0261,-0.0881,0.0961,0.00487,-0.071,-0.0902,-0.00797,0.0414,-0.0509,0.412,-0.0622,,0.012
CAAAGTCA,0.0464,-0.0321,-0.047,0.0379,0.0447,0.032,-0.071,0.0536,-0.029,0.454,,,
ATACGTCA,,0.00949,,0.345,,0.183,-0.15,0.322,-0.0854,0.196,,,
GAGACGTA,,0.034,,0.411,0.396,,-0.0497,0.413,-0.119,0.0734,0.395,,
TCACGCCA,,-0.137,0.223,,,0.263,-0.0629,-0.00158,0.212,-0.152,0.156,,
